From PubChem BioAssay AID2100 (National Center for Advancing Translational Sciences (NCATS), 2009)
The whole screen tested about 300,000 compounds, of which about 1,200 (0.4%) were called active. This list was built around the results that the source calls inconclusive (neither active nor inactive); the mix of calls is not that of the screen. Calls follow the shape of the dose curve; as a rule, active = well fitted inhibition curve with a large enough effect; inconclusive = small, poorly fitted or top-dose-only effect, or another doubt; inactive = no such curve, though single readings can be large or run the other way. Potencies of inconclusive entries are doubtful fits and often do not repeat.

target: Lysosomal alpha-glucosidase (Homo sapiens) (UniProt P10253); experiment: qHTS Assay for Inhibitors and Activators of Human alpha-Glucosidase Cleavage of Glycogen; settings: recombinant GAA, glycogen substrate, Amplex Red glucose oxidase fluorescence; activity change, negative = inhibition: at 76.4 µM (top of the series) unless noted;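 as to activity change, negative = inhibition: 0% = full enzyme reaction and -100% = no-enzyme basal signal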
Outline: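 Natural-substrate format: glycogen cleavage by 4 nM human enzyme, glucose read by Amplex Red coupling (Ex 573, Em 610 nm). Normalized to enzyme and no-enzyme controls.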
Potency is read from the fitted curve at half-maximal effect.

Structure (SMILES) | Potency | activity change, negative = inhibition
NNC(=O)c1cc2c(ccc3ccccc32)o1 | inconclusive: 28.2 µM [inhibitor, partial curve] | –
COc1ccc(C2C(C(C)=O)=C(O)C(=O)N2c2ccc(O)cc2)cc1 (centres undefined) | inactive | –
COc1ccc(Nc2c(-c3ccsc3)nc3nc(C)cc(C)n23)cc1 | inconclusive: 7.94 µM [inhibitor, partial curve] | –
COc1ccc(NC(=O)CC(C)S(=O)(=O)c2cc3c(cc2C)NC(=O)CO3)cc1OC (centres undefined) | inactive | –
Cc1ccc(Nc2ccc(N)cc2S(=O)(=O)O)cc1 | inconclusive: 31.4 µM [inhibitor, single point] | –
COc1ccc(-c2nc(C#N)c(NCCc3ccccc3)o2)cc1OC | inconclusive: 28 µM [inhibitor, single point] | –
CC(=O)NC1=C(Nc2ccc(N(C)C)cc2)C(=O)c2ccccc2C1=O | inconclusive: 7.08 µM [inhibitor, partial curve] | –
CC(=O)Nc1ccc(S(=O)(=O)c2cc(O)ccc2O)cc1 | inconclusive: 35.5 µM [inhibitor, single point] | –
CC(C)OP(=O)(OC(C)C)C(O)c1ccc(N(C)C)cc1 (centres undefined) | inconclusive: 28.2 µM [inhibitor, single point] | –
CCCCN1C(=O)c2[nH]nc(-c3ccccc3O)c2C1c1cccc(OCc2ccccc2)c1 (centres undefined) | inactive | –
CC(C)c1ccc(C2N3CC4(C)CN2CC(c2ccccc2)(C3)C4=O)cc1 (centres undefined) | inactive | –
CN(C)c1ccc(/C=N/Nc2cc(N3CCOCC3)nc(N3CCOCC3)n2)cc1 | inconclusive: 9.92 µM [inhibitor, partial curve] | –
COc1ccc(N2CCN(Cc3nc(N)nc(Nc4ccccc4OC)n3)CC2)cc1 | active: 39.8 µM | –
COc1ccc(S(=O)(=O)NC(C)C)cc1C(=O)N1CCOCC1 | inconclusive: 7.08 µM [inhibitor, single point] | –
Cc1[nH]n(-c2ccc([N+](=O)[O-])cc2)c(=O)c1C=NCCN1CCN(C(=O)C(C)C)CC1 | inactive | –
O=C(Nc1cccs1)Nc1cc(C(F)(F)F)ccc1Cl | inconclusive: 35.5 µM [inhibitor, single point] | –
COc1cccc(S(=O)(=O)Nc2cccnc2)c1 | inconclusive: 7.08 µM [inhibitor, single point] | –
CC(C)CCNC(=O)CCCN1C(=O)c2ccccc2Sc2ncccc21 | inconclusive: 56.2 µM [inhibitor, partial curve, poor fit] | –
Fc1ccc(NC(=S)Nc2cc(-c3ccccc3)[nH]n2)cc1Cl | inconclusive: 28.2 µM [inhibitor, partial curve] | –
O=C1NCCC/C1=N/Nc1ccc(F)cc1 | inconclusive: 35.5 µM [inhibitor, partial curve] | –
CCOc1ccc(N=Nc2c(N)[nH][nH]c2=O)cc1 | inconclusive: 7.08 µM [inhibitor, partial curve, poor fit] | –
COC(=O)C(NC(=O)COc1ccccc1)(Nc1nc2c(s1)CCCC2)C(F)(F)F (centres undefined) | inconclusive: 12.6 µM [inhibitor, partial curve, poor fit] | –
Cn1c(=O)c2c(nc(N/N=C/c3ccncc3)n2Cc2ccccc2)n(C)c1=O | inconclusive: 14.1 µM [inhibitor, partial curve] | –

Structure (SMILES) | Potency | activity change, negative = inhibition
Cc1ccsc1/C=N/Nc1ccc(F)cc1F | inconclusive: 31.6 µM [inhibitor, single point] | –
O=C(NNC1CC(=O)N(c2ccc(F)cc2)C1=O)c1cccnc1 (centres undefined) | inconclusive: 22.4 µM [inhibitor, partial curve] | –
COc1cc(NC(=O)CN(C)S(=O)(=O)c2ccc3[nH]c4c(c3c2)CCCC4)cc(OC)c1OC | inactive | –
C#CCn1cc(/C=N/Nc2nc3ccccc3[nH]2)c2ccccc21 | inconclusive: 28.2 µM [inhibitor, single point] | –
COc1cc(C2C(C(=O)OC(C)C)=C(C)Nc3[nH]c(=O)[nH]c(=O)c32)ccc1O (centres undefined) | inconclusive: 15.7 µM [inhibitor, partial curve] | –
CCN(C=NC1=NN(c2cccc(C(F)(F)F)c2)CC1)CC | inconclusive: 14 µM [inhibitor, partial curve] | –
Cc1cc(C)c(Nc2nn3c(=O)c4cc5c(cc4nc3s2)OCO5)c(C)c1 | inactive | –
COc1cc(OC)cc(-c2nc3nc(C)c(CCC(=O)Nc4ccc(Cl)cc4)c(C)n3n2)c1 | inactive | –
COc1ccc(-c2c3c(=O)n(C)c(=O)n(C)c3c3c(-c4ccccc4)nc4ccccc4n23)cc1 | inactive | –
COc1cc(OC)c2c(c1O)OC(c1ccccc1)CC2=O (centres undefined) | inconclusive: 31.6 µM [inhibitor, single point] | –
Cc1ccc(S(=O)(=O)N(C)C)cc1NC(=S)Nc1ccc2cn[nH]c2c1 | inconclusive: 39.8 µM [inhibitor, single point] | –
CC(=O)c1c(O)cc(C)n(Nc2nc(C)cc(C)n2)c1=O | inconclusive: 17.6 µM [inhibitor, partial curve] | –
CCC(C)(C)C1CCC2(CC1)NC(=S)N(c1ccccc1)N2 (centres undefined) | inconclusive: 31.4 µM [inhibitor, single point] | –
CC(C)(C)OC(=O)[C@H](Cc1ccccc1)NC(=O)c1nc[nH]c1C(=O)N1CCN(c2ccccc2)CC1 | inconclusive: 39.8 µM [inhibitor, single point] | –
COc1ccc(N2CCN(C(=O)C3CCN(S(=O)(=O)c4cnc[nH]4)CC3)CC2)cc1 | inactive | –
Cc1ccc(NC(=O)N2CCC(=O)N2)cc1 | inconclusive: 28.2 µM [inhibitor, single point] | –
S=C(NN=C(C1CC1)C1CC1)Nc1ccccc1 | inconclusive: 50.1 µM [inhibitor, single point] | –
CCC1(c2ccccc2)NC(=S)N(c2cccc(C)c2C)N1 (centres undefined) | inconclusive: 12.6 µM [inhibitor, partial curve] | –
O=C(CC1N=C2c3ccccc3N=C(SCC(=O)Nc3cccc(Cl)c3)N2C1=O)NCc1cccs1 (centres undefined) | inconclusive: 25.1 µM [inhibitor, partial curve] | –
Cc1ccc2c(=O)cc(C(=O)Nc3nnc(CC(C)C)s3)oc2c1C | inactive | –
C/C(=N\Nc1nc(C)cc(C)n1)c1ccc(C)o1 | inconclusive: 22.4 µM [inhibitor, single point] | –
CCCC(=O)NC(Nc1ccccc1OC)C(Cl)(Cl)Cl (centres undefined) | inconclusive: 31.6 µM [inhibitor, partial curve] | –
Cc1cccc(NC(=O)/C(=C\c2cccs2)NC(=O)c2ccccc2)c1 | inconclusive: 3.14 µM [inhibitor, partial curve] | –

Structure (SMILES) | Potency | activity change, negative = inhibition
CCNC(=S)N/N=C/c1sccc1C | inconclusive: 56.2 µM [inhibitor, partial curve] | –
COC(=O)/C(=C/c1ccco1)NC(=O)c1ccc(Br)o1 | inconclusive: 39.8 µM [inhibitor, partial curve] | –
Cc1cccc(-n2c(C)cc(C=C3C(=O)c4ccccc4C3=O)c2C)c1 | inactive | –
COc1cccc(C2=CC(c3ccc(OC)c(OC)c3OC)n3nnnc3N2)c1 (centres undefined) | inconclusive: 44.3 µM [inhibitor, partial curve, poor fit] | –
Cc1cccc(OCC(=O)Nc2cc(C)c(C)cc2O)c1 | inconclusive: 14.1 µM [inhibitor, partial curve] | –
CCCNC(=O)c1ccc2c(=O)c(O)c(-c3cccc(Br)c3)[nH]c2c1 | inconclusive: 35.5 µM [inhibitor, partial curve] | –
OCCN1CCN(c2ncnc3sc4c(c23)CCCC4)CC1 | inactive | –
CCCN(CCC)S(=O)(=O)c1ccc(C(=O)NNc2nc(-c3ccccc3)c3cc(Br)ccc3n2)cc1 | inconclusive: 39.8 µM [inhibitor, single point] | –
O=C(NC1C(=O)NNC1c1ccccc1)c1ccccc1 (centres undefined) | inconclusive: 50.1 µM [inhibitor, single point] | –
CC(=O)c1ccc(N2CCN(S(=O)(=O)c3cn(C)cn3)CC2)cc1 | inactive | –
CC(C)Cc1nc2n[nH]c(N)c2c2c1CCC2 | inconclusive: 35.5 µM [inhibitor, partial curve] | –
Cc1cc2n(n1)SC(Nc1ccc(F)c(Cl)c1)N2 (centres undefined) | inconclusive: 50.1 µM [inhibitor, single point] | –
CCc1ccc[n+](-c2[nH]c(=O)sc2/C=N/NC([S-])=Nc2ccccc2)c1 | inconclusive: 3.55 µM [inhibitor, partial curve] | –
CC1(C)C(c2ccccc2)=NC(c2ccc(F)cc2)N1O (centres undefined) | inconclusive: 28.2 µM [inhibitor, partial curve] | –
COc1ccc(S(=O)(=O)Nc2cc(C(C)C)c(O)cc2C)cc1 | active: 19.8 µM | –
CC1(C)CC(=O)c2cc(C(=O)Nc3ccc(Br)cc3)c(=O)n(-c3ccc(Cl)cc3)c2C1 | inactive | –
Cc1cc(N/N=C/c2c[nH]c3ccccc23)c2ccccc2n1 | inconclusive: 39.8 µM [inhibitor, partial curve] | –
CCN(CC)S(=O)(=O)c1cc([N+](=O)[O-])ccc1NNC(=O)Nc1ccccc1 | active: 28.2 µM | –
CC1=[N+](C)c2c(ccc3cccnc23)C1(C)C | inactive | –
O=C(NNC(=S)NC(=O)c1ccccc1)c1cccnc1 | inconclusive: 50.1 µM [inhibitor, single point] | –
CN(C)CCNc1oc(/C=C/c2ccccc2)nc1C#N | inconclusive: 25.1 µM [inhibitor, single point] | –
CC1CCCCN1CC(=O)Nc1ccc(N2CCCCCC2)cc1 (centres undefined) | inconclusive: 7.03 µM [inhibitor, partial curve] | –
CC(=O)c1ccc(C(=O)Nc2ccc(N3CCOCC3)cc2)cc1 | – | inconclusive: 31.9% [activator]
